# From PubChem BioAssay AID686970 (National Center for Advancing Translational Sciences (NCATS), 2013)
# Out of some 360,000 compounds screened, about 6,000 (1.7%) were called active. The inconclusive results got no clear call from the source; some entries with a clear call stand among them for comparison. Calls come from the whole dose curve; as a rule, active = well fitted cell-killing curve with a large enough effect; inconclusive = small, poorly fitted or top-dose-only effect, or effect the other way; inactive = flat fitted curve, though single readings scatter. No potency is given beside an inconclusive call; the fits are too rough.
# Experiment: qHTS for induction of synthetic lethality in tumor cells producing 2HG: qHTS for the HT-1080-NT fibrosarcoma cell line;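 note: NT is the 2HG producing partner of a matched IDH1 knockdown line; nearly all actives have a fitted effect of over 55% in size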;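 for activity, negative = less viability: 0% = DMSO-treated cells and -100% = media-only wells without cells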
# Conditions: HT-1080-NT fibrosarcoma viability, CellTiter-Glo ATP luminescence, 48 h; activity, negative = less viability: at 46.1 µM (top of the series) unless noted
# Outline: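 750 cells/well, RPMI + 5% FBS; 2 h settle, compound pin-transfer, 48 h at 37 degrees C. CellTiter-Glo 10 min RT, luminescence. Normalized to DMSO and media-only wells.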
# Potency is the fitted concentration of half-maximal effect; tags give direction and shape of the fitted curve.
SMILES,Potency,"activity, negative = less viability"
COc1ccc(-c2cc(C(F)F)n3ncc(C(=O)NCC4CCCO4)c3n2)cc1 (stereo not given),"inconclusive [cytotoxic, single point]",
COc1ccc(C2(SCC(N)C(=O)O)c3ccccc3-c3ccccc32)cc1 (stereo not given),,inconclusive: 34.9%
CCC(=O)N1CCC1(C)C(=O)Nc1ccc(OC)c(OC)c1 (stereo not given),,inactive: 8.9%
CCOC(=O)c1c(C)n(-c2ccc(C)cc2)c2ccc(OCC(O)CNCCCO)cc12 (stereo not given),"inconclusive [cytotoxic, single point]",
CCOc1ccc(N(Cc2cc3cc(C)ccc3[nH]c2=O)C(=O)COC)cc1,"inconclusive [rising, single point]",
O=C(N[C@H]1C/C=C\C[C@@H](CC(=O)N(CCO)Cc2ccccc2)C(=O)NC[C@H](c2ccccc2)OC1=O)OCC1c2ccccc2-c2ccccc21,active: 23.1 µM,
Cc1ccc(C)c(S(=O)(=O)NCC(=O)Nc2sc3c(c2C(N)=O)CCC(C)C3)c1 (stereo not given),,inconclusive: -14.6% [cytotoxic]
CCOC(=O)C1=CN(Cc2ccco2)S(=O)(=O)NC1c1ccc(C(F)(F)F)cc1 (stereo not given),,inactive: 7.97%
CCc1c(C)nc2c(Br)cccc2c1SCCC#N,,inactive: -15%
CN(C)CCCNC(=O)CC(c1ccccc1)c1ccccc1O (stereo not given),,inactive: 13.4%
Cc1ccccc1S(=O)(=O)Cc1ccc(C(=O)N2CCN(c3cccc(C)c3C)CC2)o1,active: 5.8 µM,
O=[N+]([O-])/C=C/c1cn(Cc2ccccc2)c2ccccc12,"inconclusive [cytotoxic, single point]",
Cc1nnc(NC(=O)CSc2nc(C(C)C)nc3sc(C)c(C)c23)s1,,inactive: -7.46%
O=C1c2ccccc2C(=O)N1CCN1CCCCC1,,inactive: 7.55%
N#Cc1c(NC(=O)c2ccc(Cn3cc(Br)cn3)o2)sc2c1CCCCCC2,"inconclusive [cytotoxic, single point]",
COCCc1ccc(OCC(O)CNC(C)C)cc1 (stereo not given),,inconclusive: 27%
O=c1c2ccccc2nc(SCc2cn3ccsc3n2)n1-c1ccccc1F,"inconclusive [cytotoxic, partial curve]",
Cc1ccc(C)c(N2CCN(C(=S)Nc3ccc4nc(N5CCN(C)CC5)cc(C)c4c3)CC2)c1,"inconclusive [cytotoxic, single point]",
O=C(/C=C/c1ccc(F)cc1)Nc1cccc(S(=O)(=O)Nc2cccc(C(F)(F)F)c2)c1,"inconclusive [cytotoxic, single point]",
Cc1ccc[n+](-c2nc3ccccc3nc2[N-]S(=O)(=O)c2ccccc2)c1,"inconclusive [rising, partial curve, poor fit]",
Cc1cccc(-c2nnc(SCC(=O)N3c4ccccc4CCc4ccccc43)n2C)c1,,inactive: 0.907%
COc1cccc2c1C(=O)c1c(O)c3c(c(O)c1C2=O)CC(O)(C(C)=O)CC3OC1CC(O)C(O)C(C)O1 (stereo not given),"inconclusive [cytotoxic, partial curve]",
CC(C)(C)c1cc(NC(=O)CCl)n(-c2ccccc2)n1,"inconclusive [cytotoxic, partial curve]",
O=C(Nc1ccc(Cl)cc1)Nc1ccc(Br)cn1,"inconclusive [rising, full curve, poor fit]",

SMILES,Potency,"activity, negative = less viability"
Cc1ccc(Oc2ccccc2NC(=O)CSCC(=O)Nc2cc(C)on2)cc1,"inconclusive [cytotoxic, single point]",
COc1cc(CN(C)CC2CCCN(CCc3ccc(F)cc3)C2)c(Cl)cc1O (stereo not given),,inactive: -3.85%
N#C/C(=N\Nc1ccc(Cl)cc1)C(=O)c1ccsc1,"inconclusive [cytotoxic, partial curve]",
COc1ccc(OC)c(C2=Nn3c(nnc3-c3cc(OC)c(OC)c(OC)c3)SC2)c1,"inconclusive [cytotoxic, single point]",
COc1ccc(N/C=C/C(=O)c2sc(-c3ccccc3)nc2C)cc1,"inconclusive [cytotoxic, single point]",
COc1cccc2nc3c(C(=O)NCCN(C)C)cccc3cc12,"inconclusive [cytotoxic, partial curve]",
Cc1cc(C)cc(NC(=O)Cn2nnc(C(=O)NCc3ccccc3Cl)c2N)c1,"inconclusive [cytotoxic, single point]",
COc1ccc(/C=C/C(=O)c2ccc(NC3=NCCCS3)cc2)cc1OC,"inconclusive [cytotoxic, partial curve, poor fit]",
CCO[C@@H]1OC(C(=O)NCc2nc3ccccc3[nH]2)=C[C@H](c2csc3ccccc23)[C@H]1CCCO,"inconclusive [cytotoxic, single point]",
Cc1ccc(OCCNS(=O)(=O)c2ccc(N3CCCC3=O)cc2)cc1C,"inconclusive [cytotoxic, partial curve]",
CC/C(=N\Nc1ccnc2cc(Cl)ccc12)c1ccc(O)cc1,active: 18.4 µM,
Cc1cc(C(=O)Cn2nnc(-c3ccc(Cl)cc3)n2)c(C)n1CC1CCCO1 (stereo not given),"inconclusive [cytotoxic, single point]",
COc1ccccc1CNc1nc(Nc2ccccc2-n2cccn2)c2sccc2n1,"inconclusive [cytotoxic, single point]",
CCOc1ccccc1C(=O)Nc1cc(Cl)ccc1O,"inconclusive [cytotoxic, single point]",
N#Cc1c2nc3ccccc3nc2n2cc(NC(=O)c3ccc(F)cc3)ccc12,,inactive: -1.63%
C/C(CC1CC(COCCC(C)C)OC1=O)=N\NC(N)=S (stereo not given),"inconclusive [cytotoxic, single point]",
O=C1NC[C@@H](CCCCN2C[C@H](Cc3ccc(O)cc3)N(CCC3CCCCC3)C(=O)C2=O)N(CCc2ccc(O)cc2)C1=O,,inactive: 18.4%
O=C(NN1CCOCC1)c1ccc(Cl)cc1,,inconclusive: 32.9%
CCN(CC(=O)Nc1c(F)cccc1F)C(=O)c1cccc(S(=O)(=O)NCc2ccccc2)c1,,inconclusive: -6.1% [cytotoxic]
CCOc1ncccc1C(=O)NCCc1ccc(S(N)(=O)=O)cc1,,inactive: 9.14%
O=C(c1cccs1)N1CCN(C(=O)c2cccs2)C1=S,"inconclusive [cytotoxic, single point]",
O=C(COc1ccc(F)cc1F)N1CCCCCCC1,,inactive: 5.72%
C/C(=N/NC(=O)CN(c1ccccc1)S(=O)(=O)c1ccccc1)c1ccccc1O,"inconclusive [cytotoxic, single point]",
Cc1c(C=O)c2ccccc2n1CCOc1ccccc1,"inconclusive [cytotoxic, single point]",

SMILES,Potency,"activity, negative = less viability"
CCOC(=O)N1CCC2(CC1)C(C#N)=C(N)Oc1c2sc2nc(C)cc(C)c12,"inconclusive [cytotoxic, single point]",
COc1cc(NC(=O)CNC(=O)Cn2ccc3ccccc3c2=O)cc(OC)c1OC,"inconclusive [rising, single point]",
CCOc1cc(CNc2ccc3c(c2)OCCO3)cc(Br)c1OCC(N)=O,"inconclusive [cytotoxic, single point]",
COc1ccc(COc2cc(-c3cccc(OC)c3)nc3ccc(NC(=O)c4ccc(C)cc4)cc23)cc1,active: 13 µM,
COc1cccc(C(=O)COC(=O)COc2c(C)cc(C)cc2C)c1,,inconclusive: 3.88%
O=C(c1ccccc1)N1N=C(C(F)(F)F)CC1(O)c1ccc(F)cc1 (stereo not given),,inactive: -19.3%
C(=C\c1ccccc1)/CN1CCN(C(CCc2ccccc2)c2nnnn2C2CCCCC2)CC1 (stereo not given),"inconclusive [cytotoxic, single point]",
COc1ccc(-c2cnc3c(NC=O)cc(-c4ccc(F)cc4)cn23)cc1OC,"inconclusive [cytotoxic, full curve]",
COc1ccc(C(=O)N(C)Cc2ccc(C)o2)cc1OC1CCN(C(C)C)CC1,,inactive: -4.37%
C=CCC1(CC=C)CCCN1Cc1nc(COc2ccccc2)no1,,inactive: -0.441%
COC(=O)c1ccccc1NC(=O)NCc1ccc2c(c1)OCO2,,inactive: 2.52%
CCC(C)Oc1ccccc1C1CC(=O)NC2=C1C(=O)CCC2 (stereo not given),"inconclusive [cytotoxic, single point]",
CCNC(=O)C1CCN(S(=O)(=O)c2ccc(F)cc2)CC1,,inactive: 8.21%
CC1=NN(c2ccc(C)c(C)c2)C(=O)/C1=C/c1ccc2c(c1)n(C)c(=O)n2C,,inactive: 4.55%
CCc1c(-c2ccc(Br)cc2)ncn1Cc1cccc(-c2ccccc2)c1,"inconclusive [cytotoxic, single point]",
CCc1nc2ccc(C(=O)N3CCN(c4ccccc4)CC3)cn2c1N(CCC(C)C)CCN(C)C,"inconclusive [cytotoxic, single point]",
CC(C)c1ccc(CNC(=O)C(=O)NCCCn2ccnc2)cc1,,inactive: -16.3%
CCc1ccc2[nH]c(=O)c(CN(CCCN3CCOCC3)C(=O)Nc3cccc(Cl)c3)cc2c1,"inconclusive [cytotoxic, single point]",
Cc1ccc(C(=O)N/C(=C\c2cccnc2)c2nc3ccccc3[nH]2)cc1,,inactive: 2.92%
Cc1ccc(C2c3[nH]c4ccccc4c3C[C@H]3C(=O)N(c4ccccc4C(=O)NCCCN4CCOCC4)C(=O)N23)cc1 (stereo not given in full),"inconclusive [cytotoxic, single point]",
c1ccc(CNc2ncnc3c2cnn3-c2ccccc2)cc1,"inconclusive [cytotoxic, single point]",
CCOC(=O)N1CCN(Cc2nc3cc(NC(=O)c4cccs4)ccc3n2CC)CC1,,inconclusive: -32.2% [cytotoxic]
